The DeepSol protein solubility set

Assay: soluble on expression in E. coli; label from the status in PepcDB or PDB records

Sequence	soluble on expression in E. coli
GSTDLFSSPDHTLDALGLRCPEPVMMVRKTVRNMQPGETLLIIADDPATTRDIPGFCTFMEHELVAKETDGLPYRYLIRKGG	soluble
MKFSTVILAAGKGTRMHSNMPKVLHTLAGKPMVKHVIDTCNNLGAQNIHLVYGHGGDQMQQALANENVNWVLQAQQLGTGHAVDQASPHFQDDEKILVLYGDVPLISEDTIESLLEAQPTDGIALLTVVLEDPTGYGRIVRKRGPVVAIVEQKDASEEQKLIKEVNTGVLVATGRDLKRWLAGLNNNNAQGEYYLTDVIAAAHDEGRAVEAVHPSHSIEVEGVNDRIQLARLERAFQARQAKKLLEQGVMLRDPARFDLRGTLQCGSDVEIDVNVIIEGNVSIGNNVVIGAGSILKDCEIDDNTVIRPYSVIEGATVGENCTVGPFTRLRPGAELRDDAHVGNFVEMKNARLGEGSKANHLTYLGDAEIGKGVNVGAGVITCNYDGANKHKTVIGDDVFVGSDCQLVAPVTIGNGATIGAGTTLTKNVAEGELVITRAPERKIAGWQRPAKKK	not soluble
MLVRSCEDVLKIGNYQLKNNLIVAPMAGVTDRPFRELCLRYGAGMAVSEMMSCNPALWKTAKSQNRMVHEGESGIRSVQIAGSDPQLMAEAAQFSVENGAQIIDINMGCPAKKVNKKLAGSALLRYPDVIEDILKAVVNAVNVPVTLKTRTGWDTDNKNCLSIAQLAEDCGIQALALHGRTRACMYKGEAEYDSIKAVKAAVSIPVIANGDIDSPEKARYVLEYTGADALMIGRPAQGRPWIFQEIQHFLEHGTTMPELPISEVKDIMLGHVTALHQFYGEYLGPRIARKHVSWYLQEHEQASAFRRTFNAIETADQQLDALEGYFDNVAS	not soluble
